# Among all 110,000 compounds or so, about 230 (0.21%) showed an effect of 50% or more. The list shows a part of the results.
# Biological target: DPAP1 (Plasmodium falciparum, UniProt Q8IIJ9)
# Experiment: primary screen, percent inhibition; read by cleavage of a fluorogenic dipeptide substrate; higher = more effect of the substance
# Parameters: species or system P. falciparum D10 trophozoite lysates; single well
# 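Also: 30 min substrate incubation versus DMSO and 10 µM JCP410 controls.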
# Chain of DPAP1 (Q8IIJ9 whole entry, looked up): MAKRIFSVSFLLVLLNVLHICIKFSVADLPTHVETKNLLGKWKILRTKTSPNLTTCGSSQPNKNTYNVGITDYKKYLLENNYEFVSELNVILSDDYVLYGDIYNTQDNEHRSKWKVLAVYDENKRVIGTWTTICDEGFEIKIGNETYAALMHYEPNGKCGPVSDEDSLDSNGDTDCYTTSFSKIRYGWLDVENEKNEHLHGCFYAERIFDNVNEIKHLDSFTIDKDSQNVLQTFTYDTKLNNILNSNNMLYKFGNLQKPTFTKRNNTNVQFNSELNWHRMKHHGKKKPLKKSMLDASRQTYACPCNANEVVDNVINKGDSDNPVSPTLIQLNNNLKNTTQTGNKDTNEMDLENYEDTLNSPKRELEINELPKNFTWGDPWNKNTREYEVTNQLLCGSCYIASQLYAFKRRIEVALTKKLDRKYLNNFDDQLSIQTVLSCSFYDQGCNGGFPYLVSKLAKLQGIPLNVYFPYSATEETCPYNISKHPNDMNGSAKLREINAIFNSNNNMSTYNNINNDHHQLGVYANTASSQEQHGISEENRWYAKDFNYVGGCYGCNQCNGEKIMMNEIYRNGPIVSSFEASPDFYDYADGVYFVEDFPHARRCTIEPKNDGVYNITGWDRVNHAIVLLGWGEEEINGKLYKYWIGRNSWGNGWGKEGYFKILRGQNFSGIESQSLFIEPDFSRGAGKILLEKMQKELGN
row,SMILES,% Inhibition @ 10 uM
1,CSc1ncc(Cl)c(C(=O)Nc2nc3ccc(S(C)(=O)=O)cc3s2)n1,2.89%
2,CCC(C(=O)Nc1nc2nc(C)c(Cl)c(C)n2n1)c1ccccc1 (stereo not drawn),0.401%
3,COc1ccccc1C(=O)n1nc(-c2ccco2)nc1NCc1cccs1,-3.24%
4,CN1CCC(N(C)Cc2ccccc2)CC1,-0.828%
5,O=C(NCc1ccc(-n2cccc2)cc1)C1CCCCC1,7.51%
6,CC(C)C(NC(=O)c1ccco1)C(=O)O (stereo not drawn),1.7%
7,COC(=O)c1cc(S(=O)(=O)N2CCC(Cc3ccccc3)CC2)c[nH]1,5.94%
8,CCCOc1c(Cl)cc(C(=O)N(Cc2ccc(C)o2)C2CCS(=O)(=O)C2)cc1Cl (stereo not drawn),-2.85%
9,O=C(O)CCN1C(=O)C2C3C=CC(C2C1=O)C1C(=O)N(CCC(=O)O)C(=O)C31 (stereo not drawn),-3.92%
10,Cc1nn(-c2ccccc2)c(O)c1C(=N)NC(=O)c1ccccc1,-3.02%
11,CCOc1ccc(S(=O)(=O)N2CCN(Cc3ccccc3)CC2)c2cccnc12,4.33%
12,O=C(Cn1ncc2ccc(Cl)cc21)NCCC1=CCCCC1,-8.57%
13,CCOC(=O)c1c(C)oc2c1c(C(c1ccncc1)N1CCCCC1)c(O)c1ccccc12 (stereo not drawn),-3.21%
14,COc1ccc(C2C3=C(O)CC(C)(C)CC3=NC(C)=C2C(=O)N2CCOCC2)cc1O (stereo not drawn),2.51%
15,O=C(Nc1cccc(Cl)c1)C(=O)NC1CCCCC1,1.29%
16,CCOC(=O)c1c(C)n(-c2ccccc2)c2cc(Br)c(O)c(CN3CCOCC3)c12,-2.75%
17,OC1CCCN(CC(c2ccccc2)c2ccccc2)C1 (stereo not drawn),0.0792%
18,Cc1ccc2c(c1)c1c3n2CNCC3CCC1 (stereo not drawn),0.0345%
19,CC(C)CC(C(=O)NCC#N)c1cccc(-c2cccc(OC3CCNCC3)c2)c1 (stereo not drawn),4.63%
20,O=S1(=O)C=C(c2ccccc2)c2ccccc21,-0.759%
21,CC(C)CS(=O)(=O)C1=NSC2=NC(=O)/C(=C\c3c[nH]c4ccccc34)C(=N)N21,5.06%
22,Cc1ccc(CCN2CC(C(=O)NCCCN3CCOCC3)CC2=O)cc1 (stereo not drawn),-5.43%
23,Cc1ccc(NC(=O)CN2C(=O)S/C(=C\c3cccs3)C2=O)cc1,-4.3%
24,CC(=O)c1cccc(NC(=O)C(C)NS(=O)(=O)c2ccc(C)cc2)c1 (stereo not drawn),-5.32%
25,Cc1oc(C(=O)O)cc1COc1ccc2c(-c3ccccc3)cc(=O)oc2c1C,-7.47%
26,Cc1ccc2cc3c(N)nn(C(=O)c4cccc(Cl)c4)c3nc2c1,-0.22%

row,SMILES,% Inhibition @ 10 uM
1,COc1ccccc1OC(C)C(=O)N(Cc1ccc(Cl)cc1)C1CCS(=O)(=O)C1 (stereo not drawn),0.561%
2,COc1ccc(CSC(C)(C)[C@H](NC(=O)OCc2ccccc2)C(=O)NCC#N)cc1,-1.41%
3,COc1ccc(C(=O)n2c(C)cc(C)c(C#N)c2=O)cc1,3.72%
4,CCOc1ccccc1CNCC1CCCO1 (stereo not drawn),0.145%
5,COc1ccccc1C(=O)N1N=C(C(F)F)CC1(O)C(F)F (stereo not drawn),-3.05%
6,Cc1oc2ccc(O)cc2c1[N+](=O)[O-],0.847%
7,CCOc1ccc2nc(C)c(C/C=C(/C)Cl)c(S)c2c1,-4%
8,CN(C)CC(O)Cn1c2ccccc2c2ccccc21 (stereo not drawn),-1.97%
9,Cc1ccc(OCC(=O)NCCc2ccccc2)cc1,-4.08%
10,c1cnc(N2CCN(Cc3cccc4ccccc34)CC2)nc1,-1.92%
11,CC1(C)CN=C(N2CCN(C3=NCC(C)(C)S3)CC2)S1,-6.29%
12,Cc1ccc(C2=NN(C(=O)C3CCCO3)C(c3ccco3)C2)cc1 (stereo not drawn),-11.7%
13,CCOc1ccc(C2c3c(oc4ccc(C)cc4c3=O)C(=O)N2c2ccccn2)cc1 (stereo not drawn),0.415%
14,CCCCN(C)C(=O)Cn1c(=O)c2cccn2c2cccnc21,-4.46%
15,COc1ccc(CCNC(=O)C2CCN(c3ccc(N4CCOCC4)nn3)CC2)c(OC)c1,5.32%
16,Cc1cc(NC(=O)c2cnn(-c3ccccc3)c2-n2cccc2)no1,0.137%
17,CCc1ccccc1NC(=O)c1ccc([N+](=O)[O-])o1,2.22%
18,C=CCn1c(=N)n(CC(=O)c2ccc(Cl)c(Cl)c2)c2ccccc21,-0.999%
19,COc1ccc2[nH]cc(CCN3C(=O)C4CCCCC4C3=O)c2c1 (stereo not drawn),-5.67%
20,COc1cc(-c2cc(C(=O)O)c3c(-c4ccc(Br)cc4)[nH]nc3n2)ccc1O,3%
21,Cc1cccc(NC(c2ccc(F)cc2)C2CCCC2=O)c1 (stereo not drawn),3.48%
22,CC(=O)c1ccc(NC(=O)C23CCC(C)(c4nc5ccccc5nc42)C3(C)C)cc1 (stereo not drawn),-0.473%
23,Fc1cccc(F)c1CN1CCN(c2ccccc2)CC1,-4.04%
24,COc1ccc(C(O)c2nc3ccccc3s2)cc1 (stereo not drawn),5.66%
25,CC1(C)CC(=O)C2=C(C1)N(c1nc[nH]n1)C(N)=C(C#N)C2c1ccccc1Cl (stereo not drawn),-10.2%
26,Cc1ccc(OCC(=O)N2CCCCC2)c(Br)c1,1.87%

row,SMILES,% Inhibition @ 10 uM
1,COc1cccc(C(=O)Nc2cccc3cccnc23)c1OC,-5.51%
2,Cc1ccccc1Nc1nc(Cl)nc(N2CCOCC2)n1,2.62%
3,COC(=O)c1c(NC(=O)C2=C(C)C(=O)OC23CCCCC3)sc(C)c1C,-2.14%
4,COc1ccc(-c2noc(-c3ccc(Br)cc3)n2)cc1OC,2.76%
5,Cc1cccc(-c2noc(CN(C(=O)CCc3ccccc3)C(C)C)n2)c1,-2.45%
6,COc1cccc(C2CC(=O)N3CN(CCc4sccc4C)CSC3=C2C#N)c1 (stereo not drawn),56.9%
7,CCCc1nc(N2CCCC2)c(C#N)c2c1CCCC2,5.3%
8,Cc1nn(-c2ccccc2)c(-n2cccc2)c1C(=O)N1CCC(C(=O)NC2CCCCCC2)CC1,-7.1%
9,Cc1ccccc1-n1nc2c(c1NC(=O)Cc1ccccc1)CS(=O)(=O)C2,-0.195%
10,Cc1nc2sc3c(NCCc4ccccc4)ncnc3c2c2c1COC(C)(C)C2,5.3%
11,COc1cc(/C=C/c2nc(C#N)c(NCc3ccc(F)cc3)o2)cc(OC)c1OC,0.895%
12,N#CC1=C(N)Oc2cc(O)ccc2C1c1ccsc1 (stereo not drawn),-1.18%
13,Cc1cc(C)n(-c2cc(Oc3ccc(C#N)cc3)nc(-c3ccccc3)n2)n1,2.33%
14,COc1ccc(C(=O)N2CCC(C(=O)Nc3ccc(C(N)=O)cc3)CC2)cc1OC,1.88%
15,O=C1C(=O)N(Cc2ccccc2)c2ccc(Br)cc21,3.03%
16,O=C(Cc1ccc(Cl)cc1)Nc1cccc(-c2nc3ncccc3o2)c1,-7.08%
17,O=C(O)c1ccc2c(c1)OCCOCCOCCO2,10.6%
18,COc1cc(CN2CCSCC2)cc(OC)c1OC,3.54%
19,CC1=C(C(=O)N2CCCCC2)C(c2ccc(C)cc2)n2c(nc3ccccc32)N1 (stereo not drawn),-0.326%
20,CN(C)CCC/N=C/c1c(O)[nH]c2ccccc12,1.79%
21,CN(c1nnc(N)s1)C1CCCCC1,5.95%
22,CC(C)(C)C1CCc2c(sc3nnn(CCCN4C(=O)c5ccccc5C4=O)c(=O)c23)C1 (stereo not drawn),-4.54%
23,CC1C2NC(=S)NC1(C)Oc1ccc(Br)cc12 (stereo not drawn),-5.27%
24,C(=N\c1nc2ccccc2n1CCN1CCCCC1)/c1ccc2c(c1)OCO2,14.3%
25,CC1=C(C(=O)Nc2ccccc2F)C(c2ccc(N(C)C)cc2)C2=C(O)CCCC2=N1 (stereo not drawn),-2.68%
26,CCc1ccc(S(=O)(=O)Nc2ccc(-c3nc4ccc(C)cc4s3)cc2)cc1,4.26%

row,SMILES,% Inhibition @ 10 uM
1,CC(=O)Nc1ccc(CN2CCN(c3ccc(F)cc3)CC2)cc1,-0.828%
2,Cc1ccc(C2CC(C(F)(F)F)n3nc(C(=O)O)cc3N2)cc1 (stereo not drawn),-6.02%
3,CC1CCc2c(sc3nnn(Cc4ccc(Cl)cc4)c(=O)c23)C1 (stereo not drawn),3.87%
4,O=C(CN1CCN(Cc2ccccc2)CC1)NCC1COc2ccccc2O1 (stereo not drawn),-8.55%
5,CN1CCC(N2CCc3c([nH]c4ccccc34)C2)CC1,-1.21%
6,O=C(CC1Sc2ccccc2NC1=O)NC1CCCCC1 (stereo not drawn),1.94%
7,COc1ccc2nc(NC(=O)CCn3cccc3)sc2c1,0.953%
8,OC(COc1ccccc1)CN1CCCCCC1 (stereo not drawn),1.04%
9,O=C(CCc1nc2cccnc2n1-c1ccccc1)NCc1ccc(Cl)cc1,-2.88%
10,CC1=C(CCN2CCCC(O)C2)C(C)(C)CCC1 (stereo not drawn),-4.75%
11,CC(C)(C)CC(=O)Nc1ccc(Oc2ccccc2)cc1,16.4%
12,CC(C)(C)OC(=O)N1CCC(c2c(C(=O)NCCc3ccccc3)cnn2-c2cccc(F)c2)CC1,-6.36%
13,OCCCc1nc2n(n1)C(c1ccc(Cl)cc1)C=C(c1ccc(F)cc1)N2 (stereo not drawn),14.3%
14,O=C(Cn1c(-c2ccccn2)nc2ccccc21)NCCN1CCOCC1,0.0539%
15,CCN(CC)CCNC(=O)C12CC3CC(C)(CC(C)(C3)C1)C2,-5.59%
16,CCOC(=O)C1=C(C)N(c2ccc(OCC)cc2)C(=O)/C1=C\c1ccccc1,1.4%
17,COc1ccc(CCNc2nc(-c3ccccn3)cs2)cc1OC,-1.69%
18,C#CCn1c(COC)nc2ccccc21,-2.28%
19,COCCNC(=O)CNS(=O)(=O)c1c(C)c(C)cc(C)c1C,-3.41%
20,N#Cc1ccc(-c2ccccc2)nc1S,47%
21,O=C(Nc1ccc2ccccc2c1)c1ccccc1Cl,-9%
22,O=C1c2ccc(Oc3ccc([N+](=O)[O-])cc3)cc2C(=O)N1c1ccccc1O,-1.42%
23,CCOC(=O)N1CCN(Cc2cn3c(-c4ccc(Br)cc4)nnc3s2)CC1,2.35%
24,CCC(C)NC(=O)C1CCN(S(=O)(=O)c2ccc3nc4c(c(C(=O)O)c3c2)CC(C)CC4)CC1 (stereo not drawn),0.291%

# From article PMC6919601, “Identification of Plasmodium dipeptidyl aminopeptidase allosteric inhibitors by high throughput screening” (PLoS ONE, 2019)
